This is one part of the list.
Biological target: T1, MBP-FoxP1dN (Mus musculus, UniProt P58462 326-579)
T1 sequence: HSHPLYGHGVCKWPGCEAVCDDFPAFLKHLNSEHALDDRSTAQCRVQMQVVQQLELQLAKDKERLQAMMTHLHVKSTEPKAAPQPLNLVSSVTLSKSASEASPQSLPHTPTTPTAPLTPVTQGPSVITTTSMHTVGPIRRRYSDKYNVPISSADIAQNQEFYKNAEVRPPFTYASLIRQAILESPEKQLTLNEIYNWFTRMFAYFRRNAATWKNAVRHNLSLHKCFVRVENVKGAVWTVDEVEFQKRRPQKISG
Experiment: PD-seq (MBP pull-down with sequencing); 20 mM Tris-HCl pH 7.5, 100 mM NaCl, 1.5 mM MgCl2, 0.4 uM protein, 0.1 uM dsDNA library, 30 min, room temperature, amylose pull-down; high values mean tight binding
Details: protein: recombinant; tags: His6-MBP; chain copies: 2; dsDNA, one strand shown
In short: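 Binding is reads-per-million enrichment of pull-down over input, with replicates pooled. It comes from 30 min room-temperature incubation in Tris pH 7.5 buffer with NaCl and MgCl2 of 0.4 µM His6-MBP-tagged, N-terminally truncated mouse FoxP3 or FoxP1 fragment from E. coli with 0.1 µM Klenow-filled degenerate double-stranded DNA library, followed by amylose resin capture, three washes and Illumina sequencing of the released DNA.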

| Sequence | binding signal |
| --- | --- |
| GATGATTGTTCTCCCAGCTGATGAATTGGTTGGATCGAGTAAACAAATTTTCCTAATCTTTCTGTTCAAGCGCCATCTAC | 0.937 RPM ratio (pull-down/input) |
| GATGATTGTTCTCCCAGCTGATGAATTTTATGTTTCGAGTAAACAAATTTTCCTAATCTTTCTGTTCAAGCGCCATCTAC | 1.19 RPM ratio (pull-down/input) |
| GATGATTGTTCTCCCAGCTGATGAATTCCGTACATCGAGTAAACAAATTTTCCTAATCTTTCTGTTCAAGCGCCATCTAC | 0.996 RPM ratio (pull-down/input) |
| GATGATTGTTCTCCCAGCTGATGAATTAGTGTCCTCGAGTAAACAAATTTTCCTAATCTTTCTGTTCAAGCGCCATCTAC | 0.934 RPM ratio (pull-down/input) |
| GATGATTGTTCTCCCAGCTGATGAATTAGTGAGCTCGAGTAAACAAATTTTCCTAATCTTTCTGTTCAAGCGCCATCTAC | 0.775 RPM ratio (pull-down/input) |
| GATGATTGTTCTCCCAGCTGATGAATTTGAGGCCTCGAGTAAACAAATTTTCCTAATCTTTCTGTTCAAGCGCCATCTAC | 0.853 RPM ratio (pull-down/input) |
| GATGATTGTTCTCCCAGCTGATGAATTACACGACTCGAGTAAACAAATTTTCCTAATCTTTCTGTTCAAGCGCCATCTAC | 1.06 RPM ratio (pull-down/input) |
| GATGATTGTTCTCCCAGCTGATGAATTGAGGTGCTCGAGTAAACAAATTTTCCTAATCTTTCTGTTCAAGCGCCATCTAC | 0.768 RPM ratio (pull-down/input) |
| GATGATTGTTCTCCCAGCTGATGAATTTTTCAAGTCGAGTAAACAAATTTTCCTAATCTTTCTGTTCAAGCGCCATCTAC | 0.818 RPM ratio (pull-down/input) |
| GATGATTGTTCTCCCAGCTGATGAATTATTTATTTCGAGTAAACAAATTTTCCTAATCTTTCTGTTCAAGCGCCATCTAC | 2.06 RPM ratio (pull-down/input) |
| GATGATTGTTCTCCCAGCTGATGAATTACTCCCCTCGAGTAAACAAATTTTCCTAATCTTTCTGTTCAAGCGCCATCTAC | 0.934 RPM ratio (pull-down/input) |
| GATGATTGTTCTCCCAGCTGATGAATTGCCGAAGTCGAGTAAACAAATTTTCCTAATCTTTCTGTTCAAGCGCCATCTAC | 0.908 RPM ratio (pull-down/input) |
| GATGATTGTTCTCCCAGCTGATGAATTACGCCGCTCGAGTAAACAAATTTTCCTAATCTTTCTGTTCAAGCGCCATCTAC | 0.937 RPM ratio (pull-down/input) |
| GATGATTGTTCTCCCAGCTGATGAATTCCAAATGTCGAGTAAACAAATTTTCCTAATCTTTCTGTTCAAGCGCCATCTAC | 0.855 RPM ratio (pull-down/input) |
| GATGATTGTTCTCCCAGCTGATGAATTCGATTGATCGAGTAAACAAATTTTCCTAATCTTTCTGTTCAAGCGCCATCTAC | 0.971 RPM ratio (pull-down/input) |
| GATGATTGTTCTCCCAGCTGATGAATTGAAGAGTTCGAGTAAACAAATTTTCCTAATCTTTCTGTTCAAGCGCCATCTAC | 0.73 RPM ratio (pull-down/input) |

| Sequence | binding signal |
| --- | --- |
| GATGATTGTTCTCCCAGCTGATGAATTTAACTTGTCGAGTAAACAAATTTTCCTAATCTTTCTGTTCAAGCGCCATCTAC | 0.918 RPM ratio (pull-down/input) |
| GATGATTGTTCTCCCAGCTGATGAATTTCCTATTTCGAGTAAACAAATTTTCCTAATCTTTCTGTTCAAGCGCCATCTAC | 0.887 RPM ratio (pull-down/input) |
| GATGATTGTTCTCCCAGCTGATGAATTCCTCCCATCGAGTAAACAAATTTTCCTAATCTTTCTGTTCAAGCGCCATCTAC | 0.868 RPM ratio (pull-down/input) |
| GATGATTGTTCTCCCAGCTGATGAATTAGCGATGTCGAGTAAACAAATTTTCCTAATCTTTCTGTTCAAGCGCCATCTAC | 0.951 RPM ratio (pull-down/input) |
| GATGATTGTTCTCCCAGCTGATGAATTACATAGATCGAGTAAACAAATTTTCCTAATCTTTCTGTTCAAGCGCCATCTAC | 1.19 RPM ratio (pull-down/input) |
| GATGATTGTTCTCCCAGCTGATGAATTAACTACATCGAGTAAACAAATTTTCCTAATCTTTCTGTTCAAGCGCCATCTAC | 1.13 RPM ratio (pull-down/input) |
| GATGATTGTTCTCCCAGCTGATGAATTTGGACCCTCGAGTAAACAAATTTTCCTAATCTTTCTGTTCAAGCGCCATCTAC | 0.822 RPM ratio (pull-down/input) |
| GATGATTGTTCTCCCAGCTGATGAATTAAGCACCTCGAGTAAACAAATTTTCCTAATCTTTCTGTTCAAGCGCCATCTAC | 0.918 RPM ratio (pull-down/input) |
| GATGATTGTTCTCCCAGCTGATGAATTGTCTTGTTCGAGTAAACAAATTTTCCTAATCTTTCTGTTCAAGCGCCATCTAC | 1.1 RPM ratio (pull-down/input) |
| GATGATTGTTCTCCCAGCTGATGAATTCTGACAATCGAGTAAACAAATTTTCCTAATCTTTCTGTTCAAGCGCCATCTAC | 1.01 RPM ratio (pull-down/input) |
| GATGATTGTTCTCCCAGCTGATGAATTAATGATTTCGAGTAAACAAATTTTCCTAATCTTTCTGTTCAAGCGCCATCTAC | 1.15 RPM ratio (pull-down/input) |
| GATGATTGTTCTCCCAGCTGATGAATTGACGCACTCGAGTAAACAAATTTTCCTAATCTTTCTGTTCAAGCGCCATCTAC | 1.17 RPM ratio (pull-down/input) |
| GATGATTGTTCTCCCAGCTGATGAATTGCGAATGTCGAGTAAACAAATTTTCCTAATCTTTCTGTTCAAGCGCCATCTAC | 1.12 RPM ratio (pull-down/input) |
| GATGATTGTTCTCCCAGCTGATGAATTGATCGATTCGAGTAAACAAATTTTCCTAATCTTTCTGTTCAAGCGCCATCTAC | 1.03 RPM ratio (pull-down/input) |
| GATGATTGTTCTCCCAGCTGATGAATTGTTATGTTCGAGTAAACAAATTTTCCTAATCTTTCTGTTCAAGCGCCATCTAC | 2.01 RPM ratio (pull-down/input) |

Reference: paper PMC12820563, “FoxP3 forms a head-to-head dimer in vivo and stabilizes its multimerization on adjacent microsatellites”
